This is an account of results in the RNAGym collection of RNA variant scans (doi:10.1093/nar/gkz1192).

B1: CPEB3 Ribozyme (parent)
chain: UAACAGGGGGCCACAGCAGAAGCGUUCACGUCGCAGCCCCUGUCAGAUUCUGGUGAAUCUGCGAAUUCUGCUGUAUAUCUC

Read counts are not given, so values of variants with three or more changes are uncertain.

In this data set the parent is B1. The data set can be described thus: self-cleavage, relative activity (ratio to wild type); higher = more cleavage; in vitro, sequencing. The method in brief: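 Libraries of CPEB3 self-cleaving ribozyme mutants came from rounds of error-prone PCR and carried barcodes, which DNA sequencing matched to variants. In vitro transcription used T7 RNA polymerase at 37°C for 5 hours, with a further 15 min in DNase I before EDTA stopped the reaction; the ribozymes cleaved during both steps. The RNA was reverse transcribed with template switching and sequenced on Illumina. Relative activity is the cleaved/total read fraction of a variant divided by that of the unmutated ribozyme, averaged over three batches with at least 5 reads.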
In the case of UAACAGGGGGGCACAGCAUAAGCGCUCACGUCGCGGCCCCUGUCGGAUUCUGGUGAAUCUGCGAAUUCUGCUGUAUAUCUC, the self-cleavage turned out to be 0.05.

For the variant UAACAGGGGGGCACAGCAGAAGCGUUCACGUCGCAGCCCCUGUCAGAUUCUGGUGAAUCAGCGAAUUCUGCCGUAUAACUC, the self-cleavage came to 0.21.

On to UAACAGGGGGGCACAGCAGAAGCGUUCACGUCGCAGCCCCUGUCAUGCUCCGGUGAGUCUGCGAAUUCUGCUGUAUAUCUC, for which the self-cleavage turned out to be 0.07.

As for UAACAGGGGGGCACAGCAGAAGCGCUCACGUCGCAGCCCCUGUCAGAUUCUGGUGAAUCAGCGAAUUCUGCUGUAUAUCUC, the self-cleavage amounted to 0.32.

As to UAACAGGGGGGCACAGCAGAAGCGUUCACGUCACAGCCCCUGUCAGAUUCUGGUGAAUCUACGAACUCUGCUGUAUAUCUC, the self-cleavage was determined as 0.06.

For the variant UAACAGGGGGGCACAGCACGAGCGUUCACGUCGCAGCCCCUGUCAGAUUCUGGUGAAUCUGCGAAUUCUGCUGUAAAUCCC, the self-cleavage was 0.1.

On to UAACAGGGGGGCACAGCAGAAGCGUUCACGUCGCAGCCCCUGCCAGAUUCUGGCGAAUCUGCGAACUCCGCUGCAUAUCUC, for which the self-cleavage worked out at 0.09.

In the case of UAACAGGGGGGCACAGCAGAAGCGUCCACGUCGCAGCUCCUGUCAGAUUCAGGUGAAUCUGCGAAUUCCGCUGUAUAUCUC, the self-cleavage amounted to 0.03.

As to UAACAGGGGGGCACAGUAGAAGCGUUCACGUCGCAGCCCCUGACAGAUUCUGGUGAAUCUGCGGAUUCUGCAGCAUACCUC, the self-cleavage was 0.03.

For the variant UAACAGGGGGGCACAGCAGAAGCGUUCACGUCACAGCCCCAGUCAGAUUCUGGUGAAUCUGCGAAUUCUGCCGUAUAUCUC, the self-cleavage was determined as 0.04.

For UAACAGGGGGGCACAGCAGAAGCGUUCACGUCGCAGCCCCUGUCAGAAUCUGGUGAAUCUGCGAAUACUGCUGUAUAUCUC, the self-cleavage came to 0.09.

Take UAACAGGGGGGCACAGCAGAAGCGUUUACUUCGCAGCCCCAGUCAGGUUCUGGUGAAUCUGCGAGUUCUGCAGUAUAUCUC: the self-cleavage is 0.03.

As to UAACAGGGGGGCACAGCAGAAGCGUACACGUCGCAGCCCCCGUCUGAUUCUGGUGAAUCCGCGAAUUCUGCUAUAUAUCUC, the self-cleavage worked out at 0.06.

UAACAGGGGGGCACAGCAGAAGCGCUCACGUCACAGCCCCAGUCAGAUUCUGGUGAAUCUGCGAAUUCUGCUGUAUAUCUC: the self-cleavage came out at 0.05.

For UAACAGGGGGGCACAGCAGAAGCGUUCACGUCGCAGCCCAUGUCGGAUUCUGGUGAAUCUGCAAUUUCUGCUGUAUAUCUC, the self-cleavage turned out to be 0.07.

On to UAACAGGGGGGCACAGCAGAAGCGUUCACGUCGCAGCCCCUGUCAGACUCUGGUGAAUCCGCGAAUUCUGCUGUAUAUCUC, for which the self-cleavage turned out to be 0.14.

With UAACAGGGGGGCACAGCAGAAGCGUUCACGUCGCAGCCCCUGUCAGACCCUGGUGAACCUGCGAAUUCUGCUGUAUAUCUC, the self-cleavage was 0.08.

UAACAGGGGGGCACAGCAGAAGCGUACACGUCGCAUCCCCCGUCAGAUUCUGGUGAAUCUGCGAAUUCUGCCGUACAUCUC: the self-cleavage was found to be 0.07.

With UAACAGGGGGGCACAGCAGAAGUGUUCACGUCCCAGCCCCUGUCAGAUUCUGGUGAAUCUGGGAGUUCUGCUGUAUAUCUC, the self-cleavage worked out at 0.03.

Turning to UAACAGGGGGGCACAGCAGAAGCGUUCACGUCGCAGCCCCCGUCAGAUUCUGGUGAAUCUGCGAAUUCAGCUGUAUAUCUC, the self-cleavage was 0.25.

For UAACAGGGGGGCACAGCAGAAGCGUUCACGACGCUGCCCCAGACAGAUUCUGGUGAAUCUGCGAAUUCUGCUGUAUAUCUU, the self-cleavage was determined as 0.06.

Regarding UAACAGGGGGGCACAGCAGAAGCGUUCACGCCGCAGCCCCUGUCAGAUCCUGGUGAAUCUGCGAAUUCUGCAGUAUAUCUC, the self-cleavage amounted to 0.05.

UAACAGGGGGGCACAGCAGAAGCGUUCACGUCGCAGCCCCUGUCAGAUUCUGGUGAAUCAGCGAAUUCUGCUGUAUCUCUC: the self-cleavage was determined as 0.11.

As to UAACAGGGGGGCACAGCAGAAGCGUCCACGUCGCAGCCCCUGUCAGAUUCAGGUGAAUCUGCGAAUUCUGCUGUAUAUCUC, the self-cleavage came out at 0.38.

For the variant UAACAGGGGGGCACAGCAGAAGCGUUCACGCCGCAGCCCCUGUCAGAUUCUGGUGAAUCUGCGAAUUCUGCUGUAUGUCUC, the self-cleavage amounted to 0.24.

For the variant UAACAGGGGGGCACAGCAGAAGCGUCCACGCCGCAGCCCCUGUCAGACUCUGGUGAAUCUGCGUAUUCUGGUGUAUAUCAC, the self-cleavage was 0.02.

Take UAACAGGGGGGCACAGCAGAAGCGUCCUUGCCGCAGCCCCUGUCAGAUUCUGGUGAAUCUGCGGAUUCUGCCGUAUAUCUC: the self-cleavage stood at 0.04.

On to UAACAGGGGGGCACAGCAGAAGCGUACACUUCGCAGCCCCUGUCAGAUUCUGGUGAAUCUGCGAAUCCUGCUGUAUAUCUC, for which the self-cleavage came to 0.04.

For the variant UAACAGGGGGGCACAGCAGAAGCGCUCACGUCGCAGCCCCUGUCAGAUUCUGGUGGAUCUGCGAAUUCUUCUGUAUGUCUC, the self-cleavage was found to be 0.08.

UAACAGGGGGGCACAGCAGAAGCGUUCACGUCGCAGCCCCUGUCAUAUUCUGGAGAAUCAGCGAAUUCUGCUGUAUAUCUC: the self-cleavage came to 0.07.

As for UAACAGGGGGGCACAGUAGAAGCGCUCACGUCGCAGCCCUUGUCAGAUCCUGGUGAAUCUGCGAAUUCUGCUGUAUACCUC, the self-cleavage came out at 0.04.

With UAACAGGGGGGCACAGCAGAAGCGCUCACGUCGCAGCCCCUGUCGGAUUCUGGCGAAUCUGCGAAUUCUGCUGUAUAACUC, the self-cleavage was found to be 0.05.

Regarding UAACAGGGGGGCACAGCAGAAGGGUUCACGUCGCAGCCCCUGUCAGAUUCUGGUGAAUCUGCGGAUUCUGCUGUAUAUCUC, the self-cleavage came to 0.05.

Turning to UAACAGGGGGGCACAGCAGAAGCGUUCACGCCGCAGCCCCUGUCAGAUUCUGGUGAAUCUGCGUAUUCCGCUGUAUAUCUC, the self-cleavage is 0.16.
